Data from the RNAGym collection of RNA variant scans (doi:10.1101/gad.245936.114).
Variants at the floor of the assay are shown more often than the library holds them.

B1: tRNA (parent)
chain: CUCUCGGUAGCCAAGUUGGUUUAAGGCGCAAGACUUUAAUUUAUCACUACGAAAUCUUGAGAUCGGGCGUUCGACUCGCCCCCGGGAGAUUUUUUCCUCGAGCAA

Variants of: B1
Assay: nonsense suppression (GFP-seq) (ratio to wild type); higher = more function; SUP4oc tRNA, yeast GFP reporter sort-seq
Summary of the method: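 Yeast carrying genome-integrated SUP4oc tRNA variants from a library with ~3% random mutations were grown in raffinose/galactose medium with 80 mg/L adenine. Each strain also carried a galactose-driven GFP ochre reporter and RFP. Cells were sorted into GFP/RFP bins, and each bin was Illumina-sequenced (phred ≥30). Nonsense suppression (GFPSEQ) is the bin median GFP/RFP, weighted by each variant's estimated cell share per bin, relative to wild-type SUP4oc; variants needed ≥100 reads and ≥30 cells.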

Point of comparison: C29U G85A, nonsense suppression 1.14. Against it:
- C29A A30C A62G — lower, ≤ 0.026
- A30C G69C — lower, ≤ 0.026
- A30C C34G G88U — lower, ≤ 0.026
- C29A U55A G84A A87G — lower, ≤ 0.026
- C29A G65C U71G — lower, ≤ 0.026
- C29A U70A C83U — lower, ≤ 0.026
- A30C U70G — lower, ≤ 0.026
- G28U U35C — lower, ≤ 0.026
- G28U U35G — lower, ≤ 0.026
- C29G U35G — lower, ≤ 0.026
- C29G C56U — lower, ≤ 0.026
- A30G G61A G67U A87G — lower, ≤ 0.026
- C29U A30U — lower, 0.124
- C29U U71C — lower, 0.0323
- G28C G61A U63C — lower, 0.041
- G28U G32C G67U C79G — lower, ≤ 0.026
- C29A A54U C56U G66C — lower, ≤ 0.026
- C29A U57C G61C U71A G78U — lower, ≤ 0.026
- A30C A33U U57A — lower, ≤ 0.026
- C29A U58C — lower, ≤ 0.026
- C29G G61C A74C — lower, ≤ 0.026
- C27U U63C — lower, 0.0314
- G28U G61U — lower, 0.191
- C29A A30U A60C G65C — lower, ≤ 0.026
- G28C C83G — lower, ≤ 0.026
- G28U G85C — lower, ≤ 0.026
- G28U G85U — lower, ≤ 0.026
- C29U U57G G69C — lower, ≤ 0.026
- A30G A33G — lower, 0.046
- A30G A33U — lower, ≤ 0.026
- A30G G61C C80U G84A — lower, ≤ 0.026
- G28C G66U — lower, ≤ 0.026
- G28A A31C A89C — lower, ≤ 0.026
- G28A G66C — lower, ≤ 0.026
- G28A A74C C80G C81G C82A — lower, ≤ 0.026
- G28A A54U U55C — lower, ≤ 0.026
- A30C C83A — lower, ≤ 0.026
- C27U U57C C77U — lower, ≤ 0.026
- C29G G67U — lower, ≤ 0.026
- C29G U70G — lower, ≤ 0.026
- C27U U55C C56A G88U — lower, ≤ 0.026
- C29G A62C — lower, ≤ 0.026
- A30C A54C G61C U63G — lower, ≤ 0.026
- G28U U63C — lower, ≤ 0.026
- G28C G65U — lower, ≤ 0.026
- C29A U35A G84A — lower, ≤ 0.026
- C29A U35C G69C C79A — lower, ≤ 0.026
- A30C U63C — lower, ≤ 0.026
- G28U A31G A74C — lower, ≤ 0.026
- G28C G85U — lower, 0.208
- C29A A31U C34U C56A — lower, ≤ 0.026
- G28U A89C — lower, ≤ 0.026
- A30C U55C — lower, ≤ 0.026
- A30C U55A — lower, ≤ 0.026
- C29A U63A G84U — lower, ≤ 0.026
- G28A C81A — lower, ≤ 0.026
- G28U A30G G32A U57G U58G C72U — lower, ≤ 0.026
- C27U U71C C77G — lower, ≤ 0.026
- C29G G86C — lower, ≤ 0.026
- C29A G84C — lower, ≤ 0.026
- A30G U71A — lower, 0.05
- A30G U71C — lower, 0.035
- C27U U63C C68U U70G — lower, ≤ 0.026
- A30U G32U A60U — lower, ≤ 0.026
- C29G A54U G73U — lower, ≤ 0.026
- C29A G59C — lower, ≤ 0.026
- C29G C83U — lower, ≤ 0.026
- G28A G32C A74C — lower, ≤ 0.026
- C29G G69U G88U — lower, ≤ 0.026
- A30C G86U — lower, ≤ 0.026
- G28A G67A — lower, 0.209
- G28A G78C — lower, 0.0938
- G28U U58C C83A — lower, ≤ 0.026
- C29G U71A — lower, ≤ 0.026
- G28A A33U — lower, 0.0279
- G28A G67C U76G — lower, ≤ 0.026
- C29U C79A — lower, ≤ 0.026
- A30U C77G — lower, 0.0332
- C27U U76G C81G — lower, ≤ 0.026
- C29G A54C U55A — lower, ≤ 0.026
- G28C U55A U63C — lower, ≤ 0.026
- G28C C34A C68G A89G — lower, ≤ 0.026
- A30U G69U C80U — lower, ≤ 0.026
- A30U C81A G88U — lower, ≤ 0.026
- C29G A74U — lower, ≤ 0.026
- A30U G61C — lower, ≤ 0.026
- G28A G61A — lower, 0.8
- C27U U35C G61U — lower, ≤ 0.026
- G28C G65U C68A — lower, ≤ 0.026
- A30C U63C C68A — lower, ≤ 0.026
- G28U A87U — lower, ≤ 0.026
- C29U A31C U71A U76C — lower, ≤ 0.026
- C29A G66C C77U C79G — lower, ≤ 0.026
- A30C C64A G69U U71A — lower, ≤ 0.026
- A30C G61A G84U G85C — lower, ≤ 0.026
- C29A U55G — lower, ≤ 0.026
- C29U C68A G73U — lower, ≤ 0.026
- A30U U76G G85U — lower, ≤ 0.026
- A30G C56A C77G — lower, ≤ 0.026
- A30G U57A C68G U71A C80G — lower, ≤ 0.026
- G28A C82U — higher, 1.15
- C29A G73C — lower, ≤ 0.026
- A30G C68G — lower, ≤ 0.026
- A30U U57C — lower, ≤ 0.026
- G28U U57A U76G — lower, ≤ 0.026
- A30U U58A G78U — lower, 0.776
- C29G G61C — lower, ≤ 0.026
- A30G A33U C56A U58C A74G — lower, ≤ 0.026
- C29U A62G G69U — lower, ≤ 0.026
- A31C A60U C75A — higher, 1.23
- C29U G59U A89C — lower, ≤ 0.026
- C29U A74U C75A — lower, ≤ 0.026
- C29A C83G — lower, ≤ 0.026
- C29G G61C G65C G85C — lower, ≤ 0.026
- A30G U57C C68G U71C — lower, ≤ 0.026
- A30C U35G — lower, ≤ 0.026
- A30C C75G G88U — lower, ≤ 0.026
- G28A A31C G88C — lower, ≤ 0.026
- G28A C56G U70C U76C C79G A89G — lower, ≤ 0.026
- C29U C68U A89U — lower, ≤ 0.026
- G28A A31C — lower, ≤ 0.026
- A30G U58A G69C A74G — lower, ≤ 0.026
- C29A C77U C82A — lower, ≤ 0.026
- A30C G61U G66U U70G C79A A89G — lower, ≤ 0.026
- A30U A89U — lower, 0.0434
- A30C A54C G73A — lower, ≤ 0.026
- A30U U55G G78C A89C — lower, ≤ 0.026
- C29A G32C G85C — lower, ≤ 0.026
- C29A A31U C34A U71A — lower, ≤ 0.026
- C29A A33G — lower, ≤ 0.026
- A31C A60U — lower, 0.222
- C29U G61A U76G C77G — lower, ≤ 0.026
- A30G G59A G73C — lower, ≤ 0.026
- A30C C56U G65C — lower, ≤ 0.026
- A30C G32U U76C — lower, ≤ 0.026
- C29U C56A — lower, ≤ 0.026
- A30G C75U — higher, 1.19
- A30U U57A G86C — lower, ≤ 0.026
- G28A G66C A87U — lower, ≤ 0.026
- C29U C68U C79A A89G — lower, ≤ 0.026
- G28C A60C — lower, 0.235
- C29G U63A A74G G84A — lower, ≤ 0.026
- A30C U57G C68U — lower, ≤ 0.026
- G28A G32U G69C C75G A87G — lower, ≤ 0.026
- C29A U58G C82A — lower, ≤ 0.026
- G28A G86A — lower, ≤ 0.026
- C29U G32U U57A G61U A89U — lower, ≤ 0.026
- C29G A89G — lower, ≤ 0.026
- G28A A33U U63A — lower, ≤ 0.026
- G28U G88C — lower, ≤ 0.026
- C29A A31G G32U — lower, ≤ 0.026
- A30U G69A G84C — lower, ≤ 0.026
- G28A A33G U63C — lower, ≤ 0.026
- A30U C34G A60C G78C — lower, ≤ 0.026
- A30U A60G U76G — lower, ≤ 0.026
- A30G A74C — lower, 0.0554
- C29G U58G — lower, ≤ 0.026
- C29U U35A U57C — lower, ≤ 0.026
- A30G U55C G67A G86U — lower, ≤ 0.026
- A30C G73C — lower, ≤ 0.026
- A30C A31U — lower, ≤ 0.026
- G28U A31G U55G G61C — lower, ≤ 0.026
- A30U U70G A74G — lower, ≤ 0.026
- C29U U35G — lower, ≤ 0.026
- G28A U71G G86A — lower, ≤ 0.026
- A30G G32C G88U — lower, ≤ 0.026
